Experimental data: PubChem BioAssay AID686979 (National Center for Advancing Translational Sciences (NCATS), 2013)
Several values for one entry are separate records, joined by “and”; a condition that tells them apart may be missing. Equal values may be shown once. About 50,000 (12%) of roughly 420,000 compounds were called active. Inconclusive means that the source gave no clear call. Such entries were picked first, then a sample of the others. Calls follow the shape of the dose curve; as a rule, active = well fitted inhibition curve with a large enough effect; inconclusive = small, poorly fitted or top-dose-only effect; inactive = flat fitted curve, though single readings scatter. A potency beside an inconclusive call is a rough fit, not a confirmed value.

assay: qHTS for Inhibitors of human tyrosyl-DNA phosphodiesterase 1 (TDP1): qHTS in cells in presence of CPT; settings: chicken DT40 Tdp1-/-;hTDP1 cells + 20 nM CPT, ATP luminescence, 48 h; activity change, negative = growth inhibition: at 46.2 µM (top of the series) unless noted; also: nearly all actives have a fitted effect of over 55% in size
In short: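 Chicken DT40 Tdp1-/- cells complemented with human TDP1, 400 cells/well, exposed to compounds plus 20 nM camptothecin for at least 48 h at 37 C; viability read as ATP content by CellTiter-Glo luminescence.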
% is scaled to controls: 0 for no effect and ±100 for the full control effect; potency is read from the fitted curve at half-maximal effect; tags tell the direction and shape of the fitted curve.

Row | Compound | Potency | activity change, negative = growth inhibition
1 | O=S(=O)(Nc1cc(Cl)ccc1-n1cncn1)c1cc(Br)ccc1Br | active: 25.9 µM | –
2 | C=CCn1c(O)c(C2=c3ccccc3=NC2=O)c2ccccc21 | inconclusive: 4.61 µM [inhibitor, single point] | –
3 | CC(C)Oc1ccc(NC(=O)CCC(=O)O)cc1 | inactive | –
4 | COC(=O)c1ccccc1NC(=O)CSc1c2c(nc3ccc(Cl)cc13)CCCC2 | inconclusive: 29.1 µM [inhibitor, single point] | –
5 | CCOc1ccc(NC(=O)CSc2nnc(Cn3cnc4ccccc43)n2C)cc1 | inactive | –
6 | COc1ccccc1CCNC(=O)C1CCN(c2nc3ccccc3nc2C(F)(F)F)CC1 | active: 16.4 µM | –
7 | Cc1cccc(NC(=O)c2ccc(S(=O)(=O)N3CC(C)OC(C)C3)cc2)n1 (configuration not stated) | inconclusive: 25.9 µM [inhibitor, single point] | –
8 | Cc1ccc(CNC(=O)C2CCN(S(=O)(=O)N3CCCC3)CC2)cc1 | inactive | –
9 | C=CCn1c(CCC(=O)O)ccc1-c1ccc(OC)cc1 | inactive | –
10 | CCCCOc1ccc(S(=O)(=O)Nc2cccnc2)cc1 | active: 9.2 µM | –
11 | Cc1cc(C)c(C)c(S(=O)(=O)NCc2ccc(C(=O)NCC3CCCO3)cc2)c1C (configuration not stated) | inconclusive: 1.03 µM [inhibitor, partial curve, poor fit] | –
12 | O=C(NNC(=O)C(O)(c1ccccc1)c1ccccc1)C1CC1 | inactive | –
13 | O=C(NCC(c1cccnc1)N1CCN(Cc2ccccc2)CC1)C(=O)Nc1ccc(F)cc1 (configuration not stated) | active: 18.4 µM | –
14 | O=C(Nc1ccc(N2CCN(C(=O)c3ccco3)CC2)cc1)c1ccccc1F | inconclusive: 23.1 µM [inhibitor, partial curve, poor fit] | –
15 | Cc1cc(C)c(S(=O)(=O)Nc2ccc(-c3ccc(N4CCCCC4)nn3)cc2)cc1C | active: 8.2 µM | –
16 | O=S1(=O)CC(N2CCN(CC3CC3)CC2)CN1Cc1cn(Cc2ccccc2C(F)(F)F)nn1 (configuration not stated) | inactive | –
17 | COc1cccc(CNC(=O)C2CCCN(c3nnc(-n4c(C)ccc4C)s3)C2)c1 (configuration not stated) | inconclusive: 29.1 µM [inhibitor, single point] | –
18 | CCN(N=O)c1ccc(/C=C2\C=Cc3ccccc32)cc1 | inactive | –
19 | COc1ccc(OC)c(S(=O)(=O)N2CCCC(C(=O)NCCN3CCOCC3)C2)c1 (configuration not stated) | inactive | –
20 | CCC(C(=O)OCC(=O)Nc1cc(Cl)cc(Cl)c1)c1ccccc1 (configuration not stated) | inconclusive: 23.1 µM [inhibitor, single point] | –
21 | Cc1c2cnn(CC(=O)N3CCOCC3)c(=O)c2c(C)n1Cc1ccccc1F | inactive | –
22 | CCOC(=O)N1CCN(CCC(=O)Nc2cc(C)ccc2C)CC1 | inactive | –
23 | O=c1c(O)c(-c2cccs2)oc2ccccc12 | inconclusive: 29.1 µM [inhibitor, single point] | –
24 | COc1ccc(OC)c(/C=N/NC(=S)NCCc2ccccc2)c1 | inconclusive: 18.4 µM [inhibitor, single point] | –

Row | Compound | Potency | activity change, negative = growth inhibition
25 | COc1ccc(CNC(=O)Cn2ccc(NC(=O)OCc3ccccc3)nc2=O)cc1 | inconclusive: 29.1 µM [inhibitor, single point] | –
26 | Cc1cnc(C)c(-c2cccc3c2OC(CNC(=O)/C=C/c2ccc(F)c(F)c2)C3)n1 (configuration not stated) | inconclusive: 29.1 µM [inhibitor, single point] | –
27 | CCNc1nc(NC(C)C)nc(SCCOc2ccc(C)cc2)n1 | active: 16.4 µM | –
28 | Clc1cccc(/C(Cc2nc3ccccc3[nH]2)=N\Nc2ccccc2)c1 | inconclusive: 29.1 µM [inhibitor, single point] | –
29 | CCn1cnc2cc(NCc3ccc(N(C)C)cc3)ccc21 | active: 14.6 µM | –
30 | Cc1ccc(COn2c(-c3ccc(Cl)cc3)nc3ccc([N+](=O)[O-])cc32)cc1 | inconclusive: 20.6 µM [inhibitor, single point] | –
31 | COc1ccc(CN2CC[C@H]3C=CC[C@@H](C(=O)Nc4ccccc4)[C@H]3C2=O)cc1OC | inactive and inconclusive: 35.5 µM [inhibitor, single point] | –
32 | COc1cc(-c2nc(-c3ccccc3)c(-c3ccc(F)cc3)[nH]2)cc2c1OCO2 | inconclusive: 29.1 µM [inhibitor, single point] | –
33 | CCC(=O)Nc1ccc2c(c1)OC[C@@H](C)N(C(=O)c1ccccn1)C[C@@H](C)[C@@H](OC)CN(C)C2=O | inactive | –
34 | Cc1ccc(C2CC2c2n[nH]c(=S)n2-c2ccc(Cl)cc2)cc1 (configuration not stated) | inconclusive: 29.1 µM [inhibitor, single point] | –
35 | Cc1cccc(S(=O)(=O)c2c(N)n(-c3ccccc3)c3nc4ccccc4nc23)c1 | inconclusive: 29.1 µM [inhibitor, single point] | –
36 | N=C(N)SCc1cccc2ccccc12 | active: 18.4 µM | –
37 | CCOC(=O)C(CCSC)Nc1nc(Cl)nc(Nc2ccc(Cl)cc2)n1 (configuration not stated) | inactive | –
38 | FC(F)(F)c1cccc(Cc2noc(CN3CCC(c4ccncc4)CC3)n2)c1 | active: 5.8 µM | –
39 | Cc1ccc(C(=O)NCC(=O)OCC(=O)Nc2ccccc2[N+](=O)[O-])cc1 | inactive | –
40 | Cc1cccc(NC(=O)CSc2nc3ccccc3nc2N2CC(C)OC(C)C2)c1 (configuration not stated) | inconclusive: 29.1 µM [inhibitor, single point] | –
41 | O=C(Nc1ccccc1)OCC1COC(c2ccccc2)(c2ccccc2)O1 (configuration not stated) | inactive | –
42 | CC(=O)c1c(C)[nH]c(C(=O)Nc2ccccc2N2CCOCC2)c1C | inconclusive: 23.1 µM [inhibitor, single point] | –
43 | O=[N+]([O-])c1cccc(C=NN=Cc2ccccc2O)c1 | inactive | –
44 | Cc1ccc(S(=O)(=O)Nc2ccc(S(=O)(=O)N3CCCC3)cc2)cc1 | – | inconclusive: -7.84% [inhibitor]
45 | O=C(O)CN(CCc1ccccc1)S(=O)(=O)c1ccccc1 | inactive | –
46 | COc1ccccc1N(C)S(=O)(=O)c1ccc(C(=O)Nc2ccncc2)cc1 | inconclusive: 23.1 µM [inhibitor, partial curve, poor fit] | –
47 | CCOc1ccc(S(=O)(=O)N2CCCCC2)cc1NC(=O)CN1C(=O)NC(C)(C2CC2)C1=O (configuration not stated) | inconclusive: 29.1 µM [inhibitor, single point] | –
